Laboratory results from paper PMC12136788.
This is one part of the list.

T1: UNK ZnF1-3 (human, UniProt Q9C0B0 31-174)
T1 sequence: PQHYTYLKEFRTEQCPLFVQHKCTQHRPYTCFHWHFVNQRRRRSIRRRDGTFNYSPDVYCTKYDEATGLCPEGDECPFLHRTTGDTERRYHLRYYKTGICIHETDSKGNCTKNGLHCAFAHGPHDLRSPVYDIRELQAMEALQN

B1: chr18:52893488:52893489:-_ENSG00000196628_ENST00000354452|hu_hu|hu_hu_hu_mus_True|48_98 (ssRNA)
RNA: GGGAGUUCUACAGUCCGACGAUCUAUUUAGACCAUUUCAAUGGAUUUAUGGCAUUUACUCAGUGCUGAUAGGUGGAAAAACUACUUGAACAGGGAUUUUUUUUUUCCUUAAUACAUGCCAAGAUUGUGUGGCUGUCAAAACAGCAACAGAGGAUUGAGCAUCA
B2: chr1:46159212:46159213:+_ENSG00000159596_ENST00000372025|hu_mus|hu_hu_hu_mus_True|28_68 (ssRNA)
RNA: GGGAGUUCUACAGUCCGACGAUCUCUGAUCCCUCCCAAGAAAGCUAGGAAACCGGCUCCAUAAGCCAUCUGAGUAAAAGCUAGGACGGGGAUAUAAGACUUUGUUAUCAGCAUGACAAGUGGGGGAGCAGUAAAGGGGAUUAACAACAGAGGAUUGAGCAUCA
B3: chr2:217001844:217001845:+_ENSG00000079246_ENST00000392132|hu_hu|hu_hu_hu_mus_False|68_98 (ssRNA)
RNA: GGGAGUUCUACAGUCCGACGAUCACCAACUUGAGGAUUAGCUCUUUUGUCAUAAGCAUAUCGGACGAUGGCCACCAUGUUUAACUCAUCCAAAGCAUGAACGAGAGAGGAAAGGGCAACAGCUGCCGCCUCAUCAUCCUUUGCCAACAGAGGAUUGAGCAUCA
B4: chr22:41863543:41863544:-_ENSG00000100410_ENST00000216252|hu_mus|FALSE|FALSE (ssRNA)
RNA: GGGAGUUCUACAGUCCGACGAUCGGCAUCGGAGACUCCGGGGCCGCCACAGAUUACACACCGGCCCUGGUAAGAUCCAUAGUUACACUCAUCACAUAUGCGGACCAGGGUGCAGGGACGCACGUAGGAAUCACAGAUCACACACAACAGAGGAUUGAGCAUCA
B5: 23167715_23171204_679_CDS_ENSMUSG00000020290_ENSMUST00000020538|mouse|control|control (ssRNA)
RNA: GGGAGUUCUACAGUCCGACGAUCUUCACACUGGUUCCUUGGAAGGAUCUUCCACCUUGUUUUGAUCACAUUUUCCAAAAUCUGUAGUCCAUAGUAUUUCGUGUUCAUGUUCUGCGAAAACUCCAAUAUUGUGUCGACCCGUGUCAACAGAGGAUUGAGCAUCA
B6: chr11:105132459:105132460:+_ENSMUSG00000020694_ENSMUST00000015107|mus_mus|motif|central (ssRNA)
RNA: GGGAGUUCUACAGUCCGACGAUCGAUCUUGGAAAGACCAAAAUCUGUAAUUUUUAUCUCUCCACAUGCUGUACCAUUUACGGAAAGGAUAUUACCUGGUUUGAGGUCAUAGUGUAUGAUGGGAGGUUUUAUUUCAUUUAAGUACAACAGAGGAUUGAGCAUCA
B7: chrX:140365796:140365797:-_ENSMUSG00000031285_ENSMUST00000033642|mus_mus|mus_mus_mus_hu_False|8_28 (ssRNA)
RNA: GGGAGUUCUACAGUCCGACGAUCCUUCUCAUUACUCAGUGCCUGCAAGGUUCUGGUUCGGUAGAAGCUACAGUGGGCGCUGUGAGUGGGGCUAGGCAACCCAUUCAUCCGUGACCCUCGCAUGUUCCUAGAUGCUUUAUCUCUCAACAGAGGAUUGAGCAUCA
B8: chr15:31520727:31520728:-_ENSMUSG00000022234_ENSMUST00000022842|mus_mus|motif|central (ssRNA)
RNA: GGGAGUUCUACAGUCCGACGAUCAGUUUAUUCUUCAGAUUCUCCAGGCUUACGGAUGUCAUCAAUCUUCAGAAUCAUCCGGACCAUCUGGGUGGCAAGAGAGAUCUGCUGCUUUUUGCCAAUCAAGGUUUCUAUGACAUGCUGCAACAGAGGAUUGAGCAUCA
B9: chr6:118368571:118368572:-_ENSMUSG00000030138_ENSMUST00000032237|mus_hu|FALSE|FALSE (ssRNA)
RNA: GGGAGUUCUACAGUCCGACGAUCAUCCUGCAGAAGCCGCUUCUUUUUCUUUGCAGCUUUGGGUCCACUGUUUUUCUUUCUGUGUUUCUUCUGGUCCUUAGCCUCCAUAGUGGCUAUUUACCAAUAACAAGUAACUCUAACCUGCAACAGAGGAUUGAGCAUCA
B10: 242098753_242099861_505_CDS_ENSG00000115685_ENST00000406106|human|control|control (ssRNA)
RNA: GGGAGUUCUACAGUCCGACGAUCGCUUAAGUUCUCAAUUUUACUGAUUUUAUUGUUGACCAAGAAGAGUUUUUUCAGUCGUGUCAACUUGUCAACCCCUUCGAUGUUUCUCAGCAGAUUAAAAGAAAUAUCUAGAAUCUCCAGCAACAGAGGAUUGAGCAUCA
B11: chrX:148369136:148369137:+_ENSMUSG00000025261_ENSMUST00000112622|mus_mus|FALSE|FALSE (ssRNA)
RNA: GGGAGUUCUACAGUCCGACGAUCCCUGUAAAGGCUACUGCCUUCUUAACACAUGGGGUGGGGAUCAUGGACGGCAUGGAAAAGGGAGAGGCGAGGAAAGGGGAGACAAAAGAGAAUGAGAAGCGAACAGGUAUGCACUAGGGACAACAGAGGAUUGAGCAUCA
B12: chr2:9570881:9570882:+_ENSG00000119203_ENST00000238112|hu_mus|hu_hu_hu_mus_False|28_88 (ssRNA)
RNA: GGGAGUUCUACAGUCCGACGAUCACUUGUCUUCUGAAGGAACCAGGGCAGAGCUCCACAGUGAUCCAAAUGGAAAUGACUGAUCAACAGAAGGUCGAUCUCAGCUGGGUCAAUUAAGUCAAUGUAAGGAAGGGCAUCCAUUCCCAACAGAGGAUUGAGCAUCA
B13: chr10:27431385:27431386:-_ENSG00000136758_ENST00000376016|hu_mus|FALSE|FALSE (ssRNA)
RNA: GGGAGUUCUACAGUCCGACGAUCACAAAUGCUUCGAAGAGUUUUUGGAUGUUGCCUGUACAAGCUAGAGGAACGUAAUGUACUGAACAUAUCUAAGUGACCAUAUUUAUUUUCAAAAAAGGACUGUGCCGAAAUAUGAGAUGUCAACAGAGGAUUGAGCAUCA
B14: chr3:76513020:76513021:+_ENSMUSG00000034098_ENSMUST00000038364|mus_hu|FALSE|FALSE (ssRNA)
RNA: GGGAGUUCUACAGUCCGACGAUCUCAUCAAUUCUCUUGCCAGUUUUCUUUUCCUAGGUGUUAAUUUCCCUAUAUAUGGUUUACUUUAGCAGACAAAAGUAAUGUUUCUUUUUUAAAACCGAAAGUUCCUGAUGAUGAAACAUUCAACAGAGGAUUGAGCAUCA
B15: chrX:48760955:48760956:-_ENSG00000102100_ENST00000376521|hu_hu|FALSE|FALSE (ssRNA)
RNA: GGGAGUUCUACAGUCCGACGAUCUAAAAAACAAACCAAAAAAUCAGAACAAAUUAAUCAAAAAUAAAGAUCCAAUGGCUCUAUUUACAUAUAGCAAAGACAGCCCAGGCAUCUUCCAUGCACACACACACCCCGCCCCGAUACCAACAGAGGAUUGAGCAUCA
B16: chr12:39756943:39756944:-_ENSG00000139116_ENST00000544797|hu_hu|motif|central (ssRNA)
RNA: GGGAGUUCUACAGUCCGACGAUCUGUUUGGCUAUUACCCCCGAGGGAAUCCUGUAGUAGUCUUGUUAGCUUGGAAUCUCGGUAGGGGACAUGUGUGGCCCUCUUGCUCUUGUCUCCCAAGGCACUUAUUACAUUGCCAAGUGCCAACAGAGGAUUGAGCAUCA
B17: chr5:68473423:68473424:+_ENSG00000134057_ENST00000507798|hu_hu|motif|central (ssRNA)
RNA: GGGAGUUCUACAGUCCGACGAUCCUCCAACUCAAGUUUACAAGUUACACCUUUGCCACAGCCUUGGCUAAAUCUUGAACGGGUGCAGAAUUCAGCUGUGGUAGAGUGCUGAUCUUAGCAUGCUUCGAUGUGGCAUACUUGUUCCAACAGAGGAUUGAGCAUCA
B18: 6765221_6770062_84_3pUTR_ENSMUSG00000073639_ENSMUST00000097680|mouse|control|control (ssRNA)
RNA: GGGAGUUCUACAGUCCGACGAUCUCAGGAGCAGGCUGGACUUGCCCACCCCACUCUCGCCGAUGAUGAGUAUCUUCAGAGUGGUCAGCACGUCCUCGUCCAUCCUGCGCCCGCUCUACUCCGACCCAGCCCCCGUGCCCGUCACAACAGAGGAUUGAGCAUCA
B19: chr9:113828744:113828745:+_ENSMUSG00000033392_ENSMUST00000111838|mus_hu|FALSE|FALSE (ssRNA)
RNA: GGGAGUUCUACAGUCCGACGAUCAAGUAAUGUUAUGUACAGUUUUAUUGCCAGUAUAUGCACAACAGUAAGCAUAGAACUAUAAAUACACAAUGUAAUUAACAGUAGAAAACAAAAUUGUUACAGGUAGAGGGAGAGGAUAUACAACAGAGGAUUGAGCAUCA
B20: chr2:9724522:9724523:-_ENSG00000134308_ENST00000238081|hu_mus|motif|central (ssRNA)
RNA: GGGAGUUCUACAGUCCGACGAUCUUUUUUGGGACUACAGUCAAUGAUUAGCAAACACACAAUAUAGUGGUCCAACUCUCGGAAGAACAAUCACUGGACAAACCGGAUACCCUCUCCCAUGUGCACAACUCUGCAUGGAAAAGUCAACAGAGGAUUGAGCAUCA
B21: 30344605_30344725_68_3pUTR_ENSG00000152219_ENST00000282032|human|control|control (ssRNA)
RNA: GGGAGUUCUACAGUCCGACGAUCGGCUUCGGGCAAGAUGCGAGUCCACACAGGCCACACUCGACCGACCGCUUCCCAGCCAGUCCCCGCGCUACCACUGAGAGGACGGCAAGCGCGGGCUAGAGGAGCUCAACGCCACCACAACAACAGAGGAUUGAGCAUCA
B22: chr12:105536279:105536280:+_ENSG00000136051_ENST00000332180|hu_mus|hu_hu_hu_mus_True|38_48 (ssRNA)
RNA: GGGAGUUCUACAGUCCGACGAUCAGCACUGAACAUGUAAUGUAAUCUGGCUGCAUCGACAGCAUUUUCAUAUACAUCAUCUAAAUAAAUUGGGAAGACAGCUCGAUGCCAGUAUAAAAAACAGCAGUCACACUGUGCUUGGACCAACAGAGGAUUGAGCAUCA

Biological target: T1, UNK ZnF1-3
Assay: nsRBNS (natural sequence RNA bind-n-seq); RBNS binding buffer (assumed for nsRBNS): 25 mM Tris pH 7.5, 150 mM KCl, 3 mM MgCl2, 0.01% Triton X-100, 500 ug/ml BSA, 20 U/ml SUPERase-In, 4 C; UNK is unkempt and MSI1 is Musashi-1; names of the RNAs are library labels; protein concentration not given here; high values mean tight binding

Binder	binding signal [enrichment R]
B1	0.819
B2	1.34
B3	1.58
B4	1.25
B5	0.542
B6	1.05
B7	0.646
B8	1.12
B9	0.345
B10	0.55
B11	2.23
B12	1.62
B13	1.57
B14	0.604
B15	2.23
B16	0.484
B17	0.412
B18	0.723
B19	1.12
B20	1.19
B21	0.984
B22	2.26
